Legend:
[1] = target: H3.77_L3 I332E/H268E Hybrid
[2] = target: H3.77_L3 I332E/G236A Hybrid
[3] = target: H2.12_L3 WT Hybrid Lec13
[4] = target: H3.77_L3 S239D/I332E Hybrid
[5] = target: H3.77_L3 S239D/I332E/A330Y Hybrid
[6] = target: H3.77_L3 S239D/I332E/G236A Hybrid
[7] = target: H3.77_L3 WT Hybrid
[8] = target: H3.77_L3 I332E/H268E/G236A Hybrid
[9] = target: H3.77_L3 S239D/H268E Hybrid

B1: V158 FcgRIIIa (receptor)
chain: not shown
- Kd [1]: 26.9 nM
- Kd [2]: 98.9 nM
- Kd [3]: 28.9 nM
- Kd [4]: 14.4 nM
- Kd [5]: 11 nM
- Kd [6]: 22.4 nM
- Kd [7]: 171 nM
- Kd [8]: 49.7 nM
- Kd [9]: 16.1 nM

— US20070161783A1 (published 2007)
